The campaign covered roughly 3,400 compounds. About 840 (25%) were called active. The shares of active, inactive and inconclusive entries below differ from those in the screen.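 How the source made its calls: active means fitted half-maximal concentration of signal decrease at or below twice the sample's top tested concentration; inconclusive means flat curve between -70 and -30 percent, or poor fit; inactive means flat within 30 percent, signal rise, or potency above limit.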
Assay: T. gondii growth inhibition with IFN-gamma, dose response, cell-based, ME49Luc, HeLa, luciferase, 72 h (AID 1259418)
Conditions: T. gondii ME49Luc in IFN-y HeLa, active compounds read low, -100% = high-dose IFN-γ control wells

## O=C(NCCc1csc(-c2ccccc2)n1)[C@H]1CSCN1S(=O)(=O)c1ccc(Cl)cc1
At 19.5 µM unless noted
  max activity: inconclusive: -45.9% [at 0.68 µM]

## CCc1nc(OCC(=O)Nc2ccc(C)cc2)c2ccccc2n1
At 19.5 µM unless noted
  max activity: inactive: 32.4%

## O=C(C[C@@H]1CC[C@H]2[C@@H](COC[C@@H](O)CN2Cc2cc(F)ccc2F)O1)NCc1ccc(Oc2ccccc2)cc1
At 19.5 µM unless noted
  max activity: inconclusive: 17.5% [at 2.6 µM]

## COc1ccccc1N(Cc1nc(-c2ccc(C)cc2)oc1C)S(=O)(=O)c1ccccc1
At 19.5 µM unless noted
  max activity: inconclusive: -27.5%

## COc1cccc(S(=O)(=O)N2CCCCN3[C@H](CO)[C@H](c4ccc(C#CC5CC5)cc4)[C@H]3C2)c1
At 19.5 µM unless noted
  max activity: inconclusive: 107% [at 0.038 µM]

## COc1cccc(S(=O)(=O)N2CCCCN3[C@H](CO)[C@@H](c4ccc(C#CCC(C)C)cc4)[C@H]3C2)c1
At 19.5 µM unless noted
  max activity: inconclusive: -98.7%

## Cc1ccccc1CC(=O)Nc1ccc(-c2nc(-c3ccccc3)co2)cc1
At 19.5 µM unless noted
  max activity: inconclusive: -47.3% [at 10 µM]

## COc1cccc(S(=O)(=O)N2CCCCN3[C@H](C2)[C@@H](c2ccc(C#CCC(C)C)cc2)[C@@H]3CO)c1
At 0.08 µM
  max activity: inactive: 100%
At 5 µM
  max activity: inconclusive: 92.2%

## Fc1cccc(CSc2nc(Nc3ccc4c(c3)OCO4)c3ccccc3n2)c1
At 19.5 µM unless noted
  max activity: inactive: 11.5%

## CN(C)C1CCN(Cc2cccc(C#N)c2)C(C(=O)O)C1 (stereo unspecified)
At 19.5 µM unless noted
  max activity: inconclusive: 20.9%

## Cc1oc(-c2cccc(Cl)c2)nc1Cn1nnc(-c2nc(-c3cccnc3)no2)c1C
At 19.5 µM unless noted
  max activity: inactive: 8.12% [at 10 µM]

## O=C(C1CC1)N1C[C@@H]2N[C@H](C1)C2c1ccc(/C=C/c2ccccc2)cc1 (stereo partly specified)
At 1.2 µM
  max activity: inconclusive: 268%
At 10 µM
  max activity: inconclusive: 304%

## Cc1ccc(-c2coc(-c3ccc(NC(=O)NCCc4ccccc4)cc3)n2)c(C)c1
At 19.5 µM unless noted
  max activity: inactive: 27.7% [at 0.35 µM]

## Cc1oc(-c2ccccc2)nc1Cn1nnc(-c2nc(-c3ccc(OC(F)(F)F)cc3)no2)c1C
At 19.5 µM unless noted
  max activity: inconclusive: -48.9% [at 0.35 µM]

## Cc1nc(CCNC(=O)[C@H]2CCCN2S(=O)(=O)c2cccc(Cl)c2)cs1
At 19.5 µM unless noted
  max activity: inactive: -9.1% [at 0.35 µM]

## COc1ccc(N(Cc2nc(-c3cccc(C)c3)oc2C)S(=O)(=O)c2ccc(C)cc2)cc1
At 19.5 µM unless noted
  max activity: inactive: -7.34% [at 1.35 µM]

## COc1ccc(NC(=O)COc2nc(C)nc3ccccc23)c(OC)c1
At 19.5 µM unless noted
  max activity: inactive: 17.4% [at 0.16 µM]

## COc1ccc(-c2nc(NCCN3CCOCC3)c3ccccc3n2)cc1
At 19.5 µM unless noted
  max activity: inconclusive: 35.2%

## Cc1nc(-c2ccc(F)cc2)sc1-c1ccc(SCc2c(F)cccc2Cl)nn1
At 19.5 µM unless noted
  max activity: inactive: 12.7% [at 0.68 µM]

## O=C(CC1CC1)N1CC[C@@H]2[C@H](CO)Nc3ccc(-c4ccc(F)cc4)cc3[C@@H]21
At 19.5 µM unless noted
  max activity: inconclusive: -49.1% [at 0.6 µM]

## COc1ccc(-c2nc(Cn3nnc(-c4nc(-c5ccc(C)cc5)no4)c3C)c(C)o2)cc1
At 19.5 µM unless noted
  max activity: inactive: 4.22% [at 0.16 µM]

## CCOC(=O)c1cccc(NC(=O)Nc2ccc(-c3nc(-c4ccc(C)cc4C)co3)cc2)c1
At 19.5 µM unless noted
  max activity: inactive: -3.92% [at 1.35 µM]

## Cc1ccc(S(=O)(=O)N2CC[C@H]3[C@@H](CO)N(C)c4ccc(-c5ccccc5F)cc4[C@H]32)cc1
At 19.5 µM unless noted
  max activity: inconclusive: -26.8%

## O=C(C1CCCCC1)N1C[C@@H]2N[C@H](C1)C2c1ccc(-c2ccccc2F)cc1 (stereo partly specified)
At 19.5 µM unless noted
  max activity: inconclusive: -46.8% [at 5 µM]

## O=C(Nc1ccc(-c2nc(-c3ccccc3)co2)cc1)c1ccco1
At 19.5 µM unless noted
  max activity: inconclusive: 172% [at 10 µM]

## COc1cccc(-c2ccc3c(c2)[C@@H]2[C@@H](CCN2S(=O)(=O)c2ccccc2F)[C@H](CO)N3)c1
At 19.5 µM unless noted
  max activity: inconclusive: -43.9%

## O=c1cc(-c2ccccc2)oc2cc(O)cc(O)c12
At 19.5 µM unless noted
  max activity: inconclusive: 275% [at 2.6 µM]

## CN1CCCN(CC2(O)CCNC2)CC1 (stereo unspecified)
At 19.5 µM unless noted
  max activity: inconclusive: -44.7% [at 1.2 µM]

## CCc1cccc(-n2nnc(C(=O)N3CCC(N4CCCCC4)CC3)c2-c2cccnc2)c1
At 19.5 µM unless noted
  max activity: inactive: 25.9% [at 0.68 µM]

## O=C(Nc1c(C(=O)NCc2ccncc2)[nH]c2ccccc12)c1ccc(Cl)cc1
At 19.5 µM unless noted
  max activity: inconclusive: -57.7% [at 1.35 µM]

## CN1C(=O)c2cc(NC(=O)Cc3cccs3)ccc2OC[C@H]2O[C@H](CC(=O)NCc3ccc(-c4ccccc4)cc3)CC[C@@H]21
At 19.5 µM unless noted
  max activity: inconclusive: 18.7% [at 5 µM]

## O=C(CC1N=C2c3ccccc3N=C(SCc3ccc(Cl)cc3)N2C1=O)NCc1ccc(F)cc1 (stereo unspecified)
At 19.5 µM unless noted
  max activity: inactive: 15%

## CC(C)(C)Nc1ncnc2c1cnn2-c1ccc(Cl)cc1
At 5 µM
  max activity: inconclusive: 483%
At 19.5 µM
  max activity: inconclusive: -65.4%

## COc1ccccc1-c1nc(Cn2nnc(-c3nc(-c4cccc(C)c4)no3)c2C)c(C)o1
At 19.5 µM unless noted
  max activity: inactive: 6.08% [at 0.35 µM]

## O=C(CCC1N=C2c3ccccc3N=C(SCc3ccccc3Cl)N2C1=O)NCc1ccco1 (stereo unspecified)
At 19.5 µM unless noted
  max activity: inactive: 35.4% [at 10 µM]

## Cc1ccccc1Cn1c(CN2CCC(C(=O)NCCC(C)N3CCCC3)CC2)cc2ccccc21 (stereo unspecified)
At 19.5 µM unless noted
  max activity: inactive: 15.2% [at 0.16 µM]

## O=C(C1CCOCC1)N1CC(=O)N2[C@H](C1)[C@H](c1ccc(/C=C/c3ccccc3)cc1)[C@@H]2CO
At 19.5 µM unless noted
  max activity: inconclusive: 30.1% [at 10 µM]

## C[C@@H](N)C1CCC(C(=O)Nc2ccncc2)CC1 (stereo partly specified)
At 19.5 µM unless noted
  max activity: inconclusive: 28.8%

## CCc1ccc(-c2noc(-c3nnn(Cc4nc(-c5ccccc5)oc4C)c3C)n2)cc1
At 19.5 µM unless noted
  max activity: inactive: 20.7%

## Cc1cccc(CNC2=NCCNC23CCN(S(=O)(=O)c2ccc(Cl)s2)CC3)c1
At 19.5 µM unless noted
  max activity: inconclusive: 7.44% [at 2.6 µM]

## CCc1cccc(NC(=O)COc2nc(C)nc3ccccc23)c1
At 19.5 µM unless noted
  max activity: inactive: 15.1% [at 0.16 µM]

## O=C(NCCc1csc(-c2ccccc2)n1)[C@H]1CCCN1S(=O)(=O)c1ccc(F)c(Cl)c1
At 19.5 µM unless noted
  max activity: inconclusive: -70.3% [at 0.16 µM]

## Cc1ccc(NC(=O)N2CCN(Cc3nc(-c4ccccc4C)oc3C)CC2)cc1
At 19.5 µM unless noted
  max activity: inactive: 9.16% [at 2.6 µM]

Source: PubChem BioAssay AID1259418 (Broad Institute, 2018)
